# Reference: the RNAGym collection of RNA variant scans (doi:10.1093/nar/gkz1192)
# The source gives no read counts; variants with many changes may rest on few reads.
# B1: CPEB3 Ribozyme (parent)
# chain: UAACAGGGGGCCACAGCAGAAGCGUUCACGUCGCAGCCCCUGUCAGAUUCUGGUGAAUCUGCGAAUUCUGCUGUAUAUCUC
# Variants of: B1
# Test: self-cleavage, relative activity (ratio to wild type); higher = more cleavage; in vitro, sequencing
# In short: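 CPEB3 self-cleaving ribozyme mutant libraries were made by rounds of error-prone PCR, barcoded, and transcribed in vitro with T7 RNA polymerase for 5 hours at 37°C. Cleavage occurred during transcription and a 15 min DNase I step before EDTA stop. RNAs were reverse transcribed with template switching and Illumina-sequenced, with DNA sequencing mapping barcodes to variants. Relative activity is the variant's cleaved/total read fraction divided by wild type's (minimum 5 reads), averaged across three batches.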
row,Variant,self-cleavage
1,A18U A20U C62G,0.06
2,A18U A21G U26A C29G A45G U49C A57G,0.02
3,A18U U25C A28G U31C U41C U74G A77G,0.27
4,A18U A20U A28G A47G U49C U78A,0.04
5,A18U U41A U72C,0.27
6,A18U A21G A56G,0.24
7,A18U C39U G53U,0.16
8,A18U A20G A21G C38A A45C,0.03
9,A18U C29G C37U,0.12
10,A18U U31C U60A U78A,0.12
11,A18U A21G A35U C44A U74C,0.27
12,A18U A20G U41C A56C,0.29
13,A18U U31C A56G A65G U67C,0.07
14,A18U C34A U60C A64G U78A,0.05
15,A18U U25A A35C U60A,0.05
16,A18U C38A U51A A56G U78C,0.13
17,A18U U26C A56G,0.2
18,A18U U25C U26A G52A A75G,0.21
19,A18U A45C A65G U67C,0.11
20,A18U C29U A45G,0.16
21,A18U A21G U26A U54C,0.26

row,Variant,self-cleavage
1,A18U A20U U72A,0.11
2,A18U U26G U60A C68A,0.04
3,A18U C34A U41A U49C U67C U80A,0.09
4,A18U A21U A28G G53A,0.19
5,A18U U41C A56U,0.16
6,A18U G19U U49A U58C U66C,0.4
7,A18U A56G A75G,0.29
8,A18U U31C U72A A75U,0.04
9,A18U A28G A35U U48C U51C U66C,0.1
10,A18U U25C U41A U43C C50A U54C,0.1
11,A18U A35G G52A,0.59
12,A18U U41A U60C U69C U72A U74C,0.06
13,A18U U25C C29G U54G A77G,0.06
14,A18U A21G U48A A56G,0.07
15,A18U A57G U60C U67C C68A U72C,0.16
16,A18U U26A A35U U43C U49C C59A,0.08
17,A18U U31A A64G U78C,0.08
18,A18U A20G A45C U67C A77U,0.1
19,A18U C23A U25G,0.35
20,A18U G24U C62A A64G,0.14
21,A18U G24A U76G,0.07

row,Variant,self-cleavage
1,A18U A28G U41C A45U U69C A77G,0.07
2,A18U U51A A56U U80C,0.26
3,A18U C29A A56C A57C U72C,0.08
4,A18U C32A U41C U51C A56G U74C,0.08
5,A18U U25C U69C,0.49
6,A18U C27U A77G U78C,0.09
7,A18U A35U G36A U72A,0.14
8,A18U U25C A35G U72C,0.08
9,A18U U41C U51C G61A,0.29
10,A18U G33A U69C,0.36
11,A18U U26A U72C,0.14
12,A18U U49C G70A,0.26
13,A18U U26C A28C,0.1
14,A18U A28G C37G U41C,0.12
15,A18U A20G U66C A75C,0.15
16,A18U A21G A64U,0.56
17,A18U U49C U51C,0.4
18,A18U G61A U78A,0.28
19,A18U U41G U60A G73A U78C U80C,0.34
20,A18U A35G A56G,0.23
21,A18U A28G A45U A64G,0.07

row,Variant,self-cleavage
1,A18U U31A U41C,0.2
2,A18U A64G U80A,0.15
3,A18U A20U A28G U78G,0.05
4,A18U U25C C39A,0.1
5,A18U U26G A35G,0.14
6,A18U U26A G33U A45C A56G A57U U72C,0.06
7,A18U C29U A64G A65U U67C U78C,0.12
8,A18U U49C A56G A65G U67C A77U,0.07
9,A18U U49A U51G U78C,0.21
10,A18U G22A U41A A57G A64U U72C U76A,0.05
11,A18U A20G A28U C32A U60A C62G,0.13
12,A18U U43A U69A U80C,1.22
13,A18U A35G U54C A56G U69C,0.37
14,A18U U41C A65G,0.23
15,A18U U26C C37A U49C,0.15
16,A18U C27U U67C,0.11
17,A18U U31G U41A A56G A64G U74C,0.05
18,A18U C40U U49A,0.25
19,A18U U25C C32U A57G,0.07
20,A18U U43C U67A,0.18
21,A18U A35G U48C U74C,0.56
